Results on 68 compounds are retold here after PubChem BioAssay AID588579 (National Center for Advancing Translational Sciences (NCATS), 2011).

Several values for one entry are separate records, joined by “and”; a condition that tells them apart may be missing. Equal values may be shown once. The whole screen tested about 400,000 compounds, of which about 2,200 (0.55%) were called active. Another 1% or so got no clear call; they are omitted. Calls follow the shape of the dose curve; as a rule, active = well fitted inhibition curve with a large enough effect; inconclusive = small, poorly fitted or top-dose-only effect, or another doubt; inactive = no such curve, though single readings can be large or run the other way. This is a selection; strong and weak results do not stand in their true shares. More than one record can exist for a structure, and the calls need not agree. Starred links: 1 amine or outer side, 2 acyl side, 3 side chain; linkers in the order of their positions; H or OH if unused. Positions of bridges follow the written chain, without caps; N, C: chain ends. Non-standard residues stand in square brackets, D forms with d. Residues, ends and D or L forms follow the SMILES beside them. ξ: configuration not given here. hSer(Ph(2-I,4-NO2,6-CO)) = O=C([C@H](CCOc1c(I)cc([N+](=O)[O-])cc1C(=O)[*:3])N[*:1])[*:2]; ξD = NC(CC(=O)O)C(=O)O
% is scaled to controls: 0 for no effect and ±100 for the full control effect; potency is read from the fitted curve at half-maximal effect.

The assay addresses DNA polymerase kappa (Homo sapiens) (UniProt Q9UBT6). Briefly: qHTS for Inhibitors of Polymerase Kappa. The conditions noted are these: purified Pol kappa, fluorescent DNA synthesis assay, 10 min; series mostly up to 107 µM; activity, negative = inhibition: at the top concentration. In outline: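 Inhibition of 10 nM Pol kappa is measured by a fluorescent read-out at 0 and 10 min following addition of 50 nM substrate (final), with a 15-min room-temperature compound preincubation.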
Chain of UniProt Q9UBT6 (Q9UBT6 whole entry, looked up): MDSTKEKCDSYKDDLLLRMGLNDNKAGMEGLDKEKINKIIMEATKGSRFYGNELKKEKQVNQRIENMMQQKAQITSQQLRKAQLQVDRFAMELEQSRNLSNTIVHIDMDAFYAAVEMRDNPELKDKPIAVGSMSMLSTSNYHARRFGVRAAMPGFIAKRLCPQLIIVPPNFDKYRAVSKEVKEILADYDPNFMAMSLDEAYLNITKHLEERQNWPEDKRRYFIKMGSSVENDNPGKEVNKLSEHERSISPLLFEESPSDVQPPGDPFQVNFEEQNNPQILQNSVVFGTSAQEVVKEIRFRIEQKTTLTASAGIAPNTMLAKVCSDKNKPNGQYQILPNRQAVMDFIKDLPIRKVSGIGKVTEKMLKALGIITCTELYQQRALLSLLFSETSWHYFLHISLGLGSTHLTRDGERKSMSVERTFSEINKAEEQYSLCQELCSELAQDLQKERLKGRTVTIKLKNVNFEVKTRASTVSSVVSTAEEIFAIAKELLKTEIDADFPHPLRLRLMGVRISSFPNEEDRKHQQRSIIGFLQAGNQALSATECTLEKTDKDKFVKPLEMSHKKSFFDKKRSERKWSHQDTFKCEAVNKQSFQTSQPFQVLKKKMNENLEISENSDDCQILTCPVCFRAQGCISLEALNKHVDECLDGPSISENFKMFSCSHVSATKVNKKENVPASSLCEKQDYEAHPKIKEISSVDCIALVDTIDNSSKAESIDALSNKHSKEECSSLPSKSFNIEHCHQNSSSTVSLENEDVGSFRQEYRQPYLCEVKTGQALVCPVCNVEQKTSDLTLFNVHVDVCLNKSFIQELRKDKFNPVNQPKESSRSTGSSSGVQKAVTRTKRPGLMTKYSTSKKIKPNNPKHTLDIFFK
Background: qHTS replaces the single test concentration by a dilution series.
Turning to `COc1c(O)cc2oc(-c3ccc(O)cc3)cc(=O)c2c1O`, the “activity, negative = inhibition” value was inactive: -10.9%. Consider `C/C(N)=C(/C#N)C(=O)CSc1nnc(SCc2ccc(Cl)cc2)s1`, for which the “activity, negative = inhibition” value was inactive: -7.99%. On the same count and under the same terms, under `O=c1cc(-c2ccc(O)cc2)oc2cc(O[C@@H]3O[C@H](CO)[C@H](O)[C@H](O)[C@H]3O)cc(O)c12` stands inactive: 17.3%. Take `CCCCCCCC/C=C\CCCCCCCC(=O)NCCO`: the Potency result was “inactive”. For `Nc1nc2c(c(=O)[nH]1)N(C=O)[C@H](CNc1ccc(C(=O)N[C@@H](CCC(=O)O)C(=O)O)cc1)CN2`, the activity, negative = inhibition is inactive: 1.5% [at 19.4 µM].

As for `CCCc1cc(=O)oc2cc(C)c(CN3CCCC3)c(O)c12`, the Potency is active: 20 µM. Take `CCC[C@@H]1O[C@@H]2C[C@@H]3[C@H]4CCC5=CC(=O)C=C[C@@]5(C)[C@H]4[C@H](O)C[C@@]3(C)[C@@]2(C(=O)CO)O1`: the activity, negative = inhibition was inactive: -2.28% [at 19.4 µM].

As to `COc1cccc2c1CCCC2CCCN1CCN(C2CCCCC2)CC1` (stereo not drawn), the Potency result was “inactive”. Take `CC[C@H](C)[C@H](NC(=O)[C@H](CCCNC(=N)N)NC(=O)[C@@H]1CCCN1C(=O)[C@H](Cc1ccccc1)NC(=O)[C@H](Cc1cnc[nH]1)NC(=O)[C@H](CCCNC(=N)N)NC(=O)[C@@H](NC(=O)[C@H](C)NC(=O)[C@H](CCC(=O)O)NC(=O)[C@H](CC(N)=O)NC(=O)[C@@H](N)CCCCN)C(C)C)C(=O)N[C@@H](Cc1c[nH]c2ccccc12)C(=O)N[C@@H](CC(C)C)C(=O)O`: the “activity, negative = inhibition” value is inactive: 18.1% [at 60.1 µM].

For `Cc1ccc(/C(=C/CN2CCCC2)c2ccccn2)cc1`, the activity, negative = inhibition was inactive: -3.64% [at 12 µM] and inactive: -9.21% [at 19.4 µM]. With `Cc1c(C(=O)O)c(O)cc2c1C(=O)c1c(O)c([C@H]3O[C@H](CO)[C@@H](O)[C@H](O)[C@H]3O)c(O)c(O)c1C2=O`, the Potency was active: 20 µM and active: 8.44 µM and active: 3.16 µM. Regarding `CC(=C/c1ccco1)/C=N/NC(=O)c1nnn(-c2nonc2N)c1CN(C)C`, the “activity, negative = inhibition” value was inactive: -1.14%. Same read-out and setting: the value for `CCOC(=O)C1(CC)Oc2ccccc2C(c2ccc(OC)cc2)=C1C(=O)OC` (stereo not drawn) was inactive: 3%; that for `COc1ccc(-c2nc(NC(=O)C3CC(=O)N(c4ccc5c(c4)OCCO5)C3)sc2C)cc1` (stereo not drawn) was inactive: -11.1%; that for `COC(=O)C1=C[C@@H](C(=O)OC)[C@@H]2C3=C(C(=O)[C@]2(C)NC(=O)c2ccccc2)[C@H](C)[C@@H]2C(=O)NC(=O)[C@@H]2[C@@H]3C1` was inactive: 0%. Turning to `CC(=O)OCC(CO)OC(C)=O` (stereo not drawn) (tested in a mixture with another compound), the “activity, negative = inhibition” value is inactive: 15.2% [at 60.1 µM]. Regarding `COc1cc(/C=N/NC(=O)c2ccccc2O)ccc1OCC(=O)Nc1ccccc1`, the Potency was active: 50.1 µM.

`COCc1nc2c([nH]1)c(=O)n(C)c(=O)n2CC(C)C`: the Potency result was “inactive”. For the compound `CCCCCC(O)c1cccc(OCc2ccc3ccccc3n2)c1` (stereo not drawn), the Potency entry is “inactive”. Regarding `C/C=C\C[C@H](C)[C@H](O)[C@H]1C(=O)N[C@@H](CC)C(=O)N(C)CC(=O)N(C)[C@@H](CC(C)C)C(=O)N[C@@H](C(C)C)C(=O)N(C)[C@@H](CC(C)C)C(=O)N[C@@H](C)C(=O)N[C@@H](C)C(=O)N(C)[C@@H](CC(C)C)C(=O)N(C)[C@@H](CC(C)C)C(=O)N(C)[C@@H](C(C)C)C(=O)N1C`, the activity, negative = inhibition is inactive: -12.2% [at 12 µM].

With `Cc1cc(O)c(C(C)C)cc1Cl`, the “activity, negative = inhibition” value is inactive: -2.53% [at 60.1 µM]. For `COC(=O)C1=COC(OC2OC(CO)C(O)C(O)C2O)C2C1C=CC2(O)CO` (stereo not drawn), the Potency was active: 35.5 µM. Turning to `CC(C)[C@@H]1C(=O)N(S(C)(=O)=O)[C@H]2CCN(C(=O)/C=C\CN3CCCCC3)[C@@H]12`, the activity, negative = inhibition is inactive: -5.35% [at 19.4 µM]. With `C/C=C/CC(C)C(O)C1C(=O)NC(CC)C(=O)N(C)CC(=O)N(C)C(CC(C)C)C(=O)NC(C(C)C)C(=O)N(C)C(CC(C)C)C(=O)NC(C)C(=O)NC(C)C(=O)N(C)C(CC(C)C)C(=O)N(C)C(CC(C)C)C(=O)N(C)C(C(C)C)C(=O)N1C` (stereo not drawn), the Potency result was “inactive”. For `O=C(O)c1cc(O)c2c(c1)[C@@H]([C@H]1c3cc(C(=O)O)cc(O)c3C(=O)c3c(O[C@@H]4O[C@H](CO)[C@@H](O)[C@H](O)[C@H]4O)cccc31)c1cccc(OC3O[C@H](CO)[C@@H](O)[C@H](O)[C@H]3O)c1C2=O` (stereo partly drawn), the “activity, negative = inhibition” value is inactive: -97%. As to `COc1cc(-c2cc(=O)c3c(O)c(OC)c(OC)cc3o2)cc(OC)c1O`, the Potency is active: 79.4 µM. The same measure, in the same setting: the value for `N#C/C(=C\c1ccc(O)c(O)c1)C(=O)NCCc1ccccc1` was “inactive”.

`CC[C@H](C)[C@@H]1O[C@]2(CC[C@@H]1C)C[C@H]1C[C@H](CC=C(C)[C@@H](O[C@@H]3C[C@H](OC)[C@H](O[C@@H]4C[C@H](OC)[C@H](O)[C@H](C)O4)[C@H](C)O3)[C@@H](C)C=CC=C3CO[C@@H]4[C@@H](O)C(C)=C[C@@H](C(=O)O1)[C@]34O)O2`: the activity, negative = inhibition is inactive: -10.2% [at 12 µM].

On to `O=C(c1ccco1)N(CCC(c1ccccc1)c1ccco1)Cc1ccccc1` (stereo not drawn), for which the Potency was active: 79.4 µM. Turning to `Cc1cc(C)cc(NC(=O)NCC2CCN(Cc3cc(C)ccc3C)CC2)c1`, the “activity, negative = inhibition” value is inactive: 0%. Take `CCCCCCCCCCCC`: the “activity, negative = inhibition” value was inactive: 17.9% [at 60.1 µM].

In the case of `O=C(Nc1cccc(S(=O)(=O)N2CCOCC2)c1)C1CC(=O)N(c2ccc3c(c2)OCCO3)C1` (stereo not drawn), the “activity, negative = inhibition” value was inactive: 104%. Turning to `COc1cccc(NS(=O)(=O)c2ccc3[nH]cc(C(=O)N(C)Cc4ccco4)c(=O)c3c2)c1`, the “activity, negative = inhibition” value is inactive: -26.9%.

For `C1CCc2nnnn2CC1`, the Potency entry is “inactive”.

With `C[C@@H]1NC(=O)[C@H](CC(N)=O)NC(=O)c2cc([N+](=O)[O-])cc(I)c2OCC[C@@H](C(=O)NC(CC(=O)O)C(N)=O)NC1=O` (stereo partly drawn) (NA[hSer(Ph(2-I,4-NO2,6-CO))][ξD]-NH2; lactam N-3), the Potency was active: 79.4 µM. On to `OCC1=C[C@@H](O)[C@@H]2C=CO[C@@H](OC3O[C@H](CO)[C@@H](O)[C@H](O)[C@H]3O)[C@H]12` (stereo partly drawn), for which the “activity, negative = inhibition” value is inactive: 18% [at 60.1 µM].

In the case of `N=C1/C(=C\c2ccc(-c3ccc(C(=O)O)cc3)o2)C(=O)N=C2SC=C(c3ccccc3)N12`, the Potency is active: 50.1 µM. Take `Cc1cc(O)cc(C)c1Cl`: the Potency entry was “inactive”.

Regarding `C=C(C)C(=O)Oc1ccc(N=Nc2ccc(C)cc2)ccc1=O`, the Potency was active: 50.1 µM. For the compound `Cc1ccc(N2CCN(C(=O)c3nn(C)c4c3CS(=O)(=O)c3ccccc3-4)CC2)c(C)c1`, the “activity, negative = inhibition” value is inactive: -4.85%. As to `O=C(/C=C/c1ccco1)NC(=S)Nc1ccc(C(=O)O)cc1`, the Potency is active: 25.1 µM. Regarding `CCNC(=O)[C@H]1O[C@H](n2cnc3c(N)nc(NCCc4ccc(CCC(=O)O)cc4)nc32)[C@@H](O)[C@@H]1O`, the activity, negative = inhibition was inactive: -11.7% [at 19.4 µM]. On the same count and under the same terms, under `C[C@@H](O)[C@@H]1NC(=O)[C@H](CCCCN)NC(=O)[C@H](Cc2c[nH]c3ccccc23)NC(=O)[C@H](Cc2ccccc2)NC(=O)[C@H](Cc2ccccc2)NC(=O)[C@H](CC(N)=O)NC(=O)[C@H](CCCCN)NC(=O)[C@@H](NC(=O)[C@@H]2CCCN2)CSSC[C@@H](C(=O)N[C@@H](CCCCN)C(=O)O)NC(=O)[C@H](CO)NC(=O)[C@H](CO)NC(=O)[C@H](Cc2ccccc2)NC1=O` (H-PCKNFFWKTFSSCK-OH; disulfide 2-13) stands inactive: 12.8% [at 60.1 µM]. On the same count and under the same terms, the value for `COc1cccc(NC(=O)Cn2nnc(C(=O)NCc3cccs3)c2N)c1` was inactive: -7.17% [at 60.1 µM]. For `O=c1cc(-c2ccc(O)cc2)oc2c(O)c(O)c(O)c(O)c12`, the Potency was active: 10 µM. On to `CC(=O)Oc1cc(-c2coc3cc(OC(C)=O)c(OC(C)=O)c(OC(C)=O)c3c2=O)cc(OC(C)=O)c1OC(C)=O`, for which the Potency is active: 0.355 µM.

Consider `CC1CCN=C(N)S1` (stereo not drawn), for which the Potency entry was “inactive”. For the compound `CN(CC(=O)O)c1ccc(/C=C2\C=Cc3ccccc32)cc1`, the “activity, negative = inhibition” value was inactive: -8.83%. Same read-out and setting: the value for `CCC(=O)OCC(=O)[C@@]1(OC(=O)CC)[C@H](C)C[C@@H]2[C@@H]3[C@H]([C@@H](O)C[C@@]21C)[C@]1(C)C=CC(=O)C=C1C[C@@H]3Cl` was inactive: -1.74% [at 12 µM]; that for `Cc1nc2ccc3nc(NC(=O)C4COc5ccccc5O4)sc3c2s1` (stereo not drawn) was inactive: 5.84%. Take `O=[N+]([O-])c1ccc(Sc2cccc[n+]2[O-])c2nonc12`: the Potency was active: 31.6 µM.

Take `COc1c(Br)cc(/C=N/n2c(-c3ccccc3)n[nH]c2=S)c(O)c1Br`: the Potency is active: 2 µM. On the same count and under the same terms, the value for `O=C(Cc1nnc(NC(=O)c2ccccc2)s1)N/N=C\c1ccc(O)c(O)c1` was active: 3.16 µM. On the same count and under the same terms, the value for `O=C1CCCC2=C1C(c1ccco1)Nc1ccc3ccccc3c12` (stereo not drawn) was active: 28.2 µM.

Regarding `CN1CCN(CCC=C2c3ccccc3Sc3ccc(S(=O)(=O)N(C)C)cc32)CC1`, the Potency entry was “inactive”. For `C[C@@]12C=Cc3occc3[C@H]1CC[C@@]13C[C@@H](CC[C@H]12)[C@@](O)(CO)C3`, the “activity, negative = inhibition” value is inactive: -6.33% [at 60.1 µM]. In the case of `O=C(O)/C=C1\CCCc2ccccc2C1O` (stereo not drawn), the Potency result is “inactive”. On to `COc1ccc2cc([C@H](C)C(=O)O)ccc2c1`, for which the Potency entry was “inactive”. On the same count and under the same terms, under `CCN(CC)CCCNc1nc2ccccc2c2[nH]c3ccc(OC)cc3c12` stands active: 17.8 µM. Still for that read-out and setting: the value for `CC(=O)Nc1ccc(NC(=S)NC(=O)/C=C/c2ccco2)cc1` was active: 44.7 µM.

As for `COC(=O)C[C@H]1c2cc(C(F)(F)F)ccc2S(=O)(=O)N1C1CCCC1`, the “activity, negative = inhibition” value is inactive: 2.12%.

As to `COc1ccccc1CNC(=O)C(=O)NCCC1CCCCN1S(=O)(=O)c1cccs1` (stereo not drawn), the Potency was active: 89.1 µM. Take `COc1ccc(-c2nc3c(c(SCC(=O)Nc4cccc(O)c4)n2)Cc2c(CO)cnc(C)c2O3)cc1`: the Potency was active: 79.4 µM. On the same count and under the same terms, the value for `CCOC(=O)N1CCC(NC(=O)c2cccc3c2C(=O)N(c2ccc(OC)cc2)C3)CC1` was active: 50.1 µM.

Consider `NC(Cc1cc(I)c(Oc2ccc(O)c(I)c2)c(I)c1)C(=O)O` (stereo not drawn), for which the “activity, negative = inhibition” value was inactive: -5.89% [at 60.1 µM]. Regarding `O=C(C[C@H]1C/C=C\CC[C@@H](Cc2ccc(F)cc2)C(=O)O[C@@H](c2ccccc2)CNC1=O)N[C@H](CO)Cc1ccccc1`, the “activity, negative = inhibition” value was inactive: -4.14%. Regarding `COc1ccc(NC(=O)CN(C)C(=O)c2cc3c(s2)CCC3)cc1`, the Potency is active: 10 µM. As for `CCCCCCCCCCCCCCCCCCc1ccc(C(=O)/C=C/C(=O)O)cc1`, the activity, negative = inhibition is inactive: -1.32% [at 19.4 µM].
